B1: Caulobacter ParB omega fusion; a variant is named by its letters at X, in order, B8GW30 (parent)
chain: MESVVVGEPGMSEGRRGLGRGLSALLGEVDAAPAQAPGEQLGGSREAPIEILQRNPDQPRRTFREEDLEDLSNSIREKGVLQPILVRPSPDTAGEYQIVAGERAWRAAQRAGLKTVPIMVRELDDLAVLEIGIIENVQRADLNVLEEALSYKVLMEKFERTQENIAQTIGKSXSHVANXMRLLXLPDEVQSYLVSGELTAXHARAIAAAADPVALAKQIIEGGLSVRETEALARKAPNLSAGKSKGGRPPRVKDTDTQALESDLSSVLGLDVSIDHRGSTGTLTITYATLEQLDDLCNRLTRGI

The full ranking holds about 81,000 sequences; the median of “one-hybrid fitness for binding parS DNA” is about -0.17, and the highest 2% start at about 0.51. This is one part of the list. A value given as a limit tells only on which side of the number the result lay.

Variants of B1 are the subject of this assay. The experiment in a line: one-hybrid fitness for binding parS DNA (scaled: cognate 1, non-cognate 0); higher = stronger binding. The settings on record: with parS DNA site. The method in brief: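 Pre- and post-selection plasmids were Illumina-sequenced, three replicate libraries were pooled, and any variant with under 10 reads was removed. The libraries were Caulobacter ParB with four specificity codons randomised, selected in E. coli USO through a HIS3 reporter whose site is 19 bp from the promoter. Cells grew 48 hours at 37°C on M9 without histidine, with 0.1 mM IPTG and 5 mM 3-AT. Fitness is the log change in variant-to-wild-type read ratio, rescaled against cognate and non-cognate.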
Regarding CSAM, the “one-hybrid fitness for binding parS DNA” value was no more than 0.2. Consider EINR, for which the “one-hybrid fitness for binding parS DNA” value was no more than 0.2. Regarding NNET, the “one-hybrid fitness for binding parS DNA” value is no more than 0.2. In the case of AVGI, the “one-hybrid fitness for binding parS DNA” value is no more than 0.2. Next, NKCR: no more than 0.2; AAMC: no more than 0.2.

Regarding IMLS, the “one-hybrid fitness for binding parS DNA” value was no more than 0.2. Next, GNDH: no more than 0.2; LTQR: no more than 0.2. KMVR: the “one-hybrid fitness for binding parS DNA” value was no more than 0.2. Take PHPS: the “one-hybrid fitness for binding parS DNA” value is no more than 0.2. For FWRV the value was no more than 0.2; for AAKI, no more than 0.2.

Regarding YAKI, the “one-hybrid fitness for binding parS DNA” value is no more than 0.2.

For the variant RRWK, the “one-hybrid fitness for binding parS DNA” value is no more than 0.2. Turning to LKLS, the “one-hybrid fitness for binding parS DNA” value was no more than 0.2. Next, STWQ: no more than 0.2.

With QQTV, the “one-hybrid fitness for binding parS DNA” value is no more than 0.2.

On to TYAV, for which the “one-hybrid fitness for binding parS DNA” value was no more than 0.2. Next, TLRF: no more than 0.2; AYYT: no more than 0.2.

PCPY: the “one-hybrid fitness for binding parS DNA” value was no more than 0.2. For the variant DPKC, the “one-hybrid fitness for binding parS DNA” value is no more than 0.2. Next, DFRC: no more than 0.2; RRNS: 0.646.

On to PAAD, for which the “one-hybrid fitness for binding parS DNA” value was no more than 0.2. With RYWN, the “one-hybrid fitness for binding parS DNA” value amounted to 0.422.

As to WAVS, the “one-hybrid fitness for binding parS DNA” value was no more than 0.2.

As to TESA, the “one-hybrid fitness for binding parS DNA” value is no more than 0.2.

In the case of YVPM, the “one-hybrid fitness for binding parS DNA” value is no more than 0.2. Turning to NAMS, the “one-hybrid fitness for binding parS DNA” value was no more than 0.2. Next, AIPV: no more than 0.2.

For the variant AVNF, the “one-hybrid fitness for binding parS DNA” value is no more than 0.2.

Consider GIDK, for which the “one-hybrid fitness for binding parS DNA” value was no more than 0.2. For NNSK, the “one-hybrid fitness for binding parS DNA” value is no more than 0.2. For LYNS the value was no more than 0.2; for PTTE, no more than 0.2; for NMRY, no more than 0.2. Next, FSRY: no more than 0.2; ADDQ: no more than 0.2. With VRGA, the “one-hybrid fitness for binding parS DNA” value was no more than 0.2. For WAYC the value was no more than 0.2; for SVKY, no more than 0.2; for RYDS, 0.987. For VSIS, the “one-hybrid fitness for binding parS DNA” value is no more than 0.2. Next, PWMR: no more than 0.2; RWYI: no more than 0.2; HWRK: no more than 0.2. In the case of RSNQ, the “one-hybrid fitness for binding parS DNA” value was no more than 0.2. Next, QIVD: 0.241; ACCM: no more than 0.2. HYAI: the “one-hybrid fitness for binding parS DNA” value is no more than 0.2. Next, CKDT: no more than 0.2. For SEYQ the value was no more than 0.2; for CMST, no more than 0.2; for AVCL, no more than 0.2. On to YSTP, for which the “one-hybrid fitness for binding parS DNA” value was no more than 0.2.

Turning to RNVE, the “one-hybrid fitness for binding parS DNA” value was no more than 0.2. For ESVG the value was no more than 0.2; for NHSM, no more than 0.2. Next, ADNF: no more than 0.2. For the variant HRDT, the “one-hybrid fitness for binding parS DNA” value was no more than 0.2. Next, LREV: no more than 0.2; YSQL: no more than 0.2. Next, WGPC: no more than 0.2; KMRC: no more than 0.2. For VTQL, the “one-hybrid fitness for binding parS DNA” value is no more than 0.2. For AKDQ the value was no more than 0.2; for EPYR, no more than 0.2; for ARDD, no more than 0.2. GIPG: the “one-hybrid fitness for binding parS DNA” value is no more than 0.2.

As for RSTY, the “one-hybrid fitness for binding parS DNA” value stood at 0.456. Next, SLVD: no more than 0.2. For VAWG the value was no more than 0.2. Turning to ACTY, the “one-hybrid fitness for binding parS DNA” value is no more than 0.2. For ASAR the value was no more than 0.2; for QYGV, no more than 0.2.

With TVIA, the “one-hybrid fitness for binding parS DNA” value is no more than 0.2.

On to NESF, for which the “one-hybrid fitness for binding parS DNA” value is no more than 0.2. With CGDW, the “one-hybrid fitness for binding parS DNA” value is no more than 0.2.

Consider QCRS, for which the “one-hybrid fitness for binding parS DNA” value was no more than 0.2. RQND: the “one-hybrid fitness for binding parS DNA” value turned out to be 0.221. EAFM: the “one-hybrid fitness for binding parS DNA” value is no more than 0.2. Take WPYG: the “one-hybrid fitness for binding parS DNA” value was no more than 0.2. For KKNR the value was no more than 0.2; for PLNS, no more than 0.2; for CIHG, no more than 0.2.

For QKLW, the “one-hybrid fitness for binding parS DNA” value was no more than 0.2. Next, GHTP: no more than 0.2.

For DLER, the “one-hybrid fitness for binding parS DNA” value was no more than 0.2. For DRHS the value was no more than 0.2; for HSKG, no more than 0.2; for TVRY, no more than 0.2. LMAE: the “one-hybrid fitness for binding parS DNA” value is no more than 0.2. Next, EPIT: no more than 0.2; AVHG: no more than 0.2.

As to RPTH, the “one-hybrid fitness for binding parS DNA” value was no more than 0.2. With IDTT, the “one-hybrid fitness for binding parS DNA” value was no more than 0.2. Next, VRMC: no more than 0.2. Regarding SMPA, the “one-hybrid fitness for binding parS DNA” value is no more than 0.2.

Consider KTSG, for which the “one-hybrid fitness for binding parS DNA” value is no more than 0.2. For TDYG the value was no more than 0.2; for DVFV, no more than 0.2; for DAHL, no more than 0.2. For ITFR the value was no more than 0.2; for KFYS, no more than 0.2. Turning to GDNC, the “one-hybrid fitness for binding parS DNA” value is no more than 0.2. For GRRT the value was no more than 0.2.

Take DDVF: the “one-hybrid fitness for binding parS DNA” value is no more than 0.2.

On to GFYT, for which the “one-hybrid fitness for binding parS DNA” value is no more than 0.2. Take QYHW: the “one-hybrid fitness for binding parS DNA” value was no more than 0.2. Next, RRLK: no more than 0.2; HYRL: no more than 0.2. Next, HGDC: no more than 0.2; CSWL: no more than 0.2; IHRV: no more than 0.2.

Consider HNSW, for which the “one-hybrid fitness for binding parS DNA” value is no more than 0.2. Next, GAYT: no more than 0.2; LHGG: no more than 0.2; RRNK: no more than 0.2. In the case of YRRE, the “one-hybrid fitness for binding parS DNA” value was no more than 0.2. For EANG the value was no more than 0.2. With IINR, the “one-hybrid fitness for binding parS DNA” value is no more than 0.2.

For the variant MCRA, the “one-hybrid fitness for binding parS DNA” value is no more than 0.2. Turning to WLTC, the “one-hybrid fitness for binding parS DNA” value was no more than 0.2. Turning to YQHG, the “one-hybrid fitness for binding parS DNA” value was no more than 0.2.

Turning to FHLT, the “one-hybrid fitness for binding parS DNA” value was no more than 0.2. For MSHT the value was no more than 0.2; for RHQE, no more than 0.2; for TWSD, no more than 0.2.

Consider VYWW, for which the “one-hybrid fitness for binding parS DNA” value was no more than 0.2. Consider WLVR, for which the “one-hybrid fitness for binding parS DNA” value is no more than 0.2. For TTSP the value was no more than 0.2; for RNKR, no more than 0.2; for EMEE, no more than 0.2. Next, VAAG: no more than 0.2.

PLQA: the “one-hybrid fitness for binding parS DNA” value is no more than 0.2. Next, MACW: no more than 0.2; VKES: no more than 0.2.

For CTKT, the “one-hybrid fitness for binding parS DNA” value was no more than 0.2.

As to PYEC, the “one-hybrid fitness for binding parS DNA” value was no more than 0.2. Next, SFNS: no more than 0.2; LEAI: no more than 0.2; PFAI: no more than 0.2.

As for DINT, the “one-hybrid fitness for binding parS DNA” value was no more than 0.2. For MYHC the value was no more than 0.2; for GPNN, no more than 0.2.

TTAY: the “one-hybrid fitness for binding parS DNA” value was no more than 0.2. In the case of RKAH, the “one-hybrid fitness for binding parS DNA” value is no more than 0.2.

As to LGVH, the “one-hybrid fitness for binding parS DNA” value is no more than 0.2.

With GMMA, the “one-hybrid fitness for binding parS DNA” value is no more than 0.2. As for TEGK, the “one-hybrid fitness for binding parS DNA” value is no more than 0.2. Next, WCWG: no more than 0.2.

Source of the values: a collection of fitness landscapes (doi:10.1016/j.celrep.2020.107928).
